# Source: the supplement of paper PMC8728848
# Some of the results follow.
# Experiments:
# Test in all cases: glycan array binding signal (z-score within array); higher = stronger binding
# Details in all cases: glycan notation: IUPAC condensed, linker removed
# [1] = target: GlcNAc(b1-3)Gal(b1-4)GlcNAc
# Method in brief: (§1)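 Glycan array data came from 3228 arrays in the Consortium for Functional Glycomics database, and only arrays with an available protein sequence were kept. Glycan names were put into IUPAC-condensed notation, and columns mapping to the same glycan were averaged. The binding signal is a within-array Z-score, averaged across arrays of one protein sequence run at different concentrations or buffers and across linkers. A negative Z-score can be read as non-binding.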
# [2] = target: GlcNAc(b1-3)Gal(b1-4)GlcNAc(b1-3)Gal(b1-4)GlcNAc
# Method in brief: as §1
# GlcNAc(b1-3)GalNAc = target: GlcNAc(b1-3)GalNAc
# Method in brief: as §1
# GlcNAc(b1-3)Man = target: GlcNAc(b1-3)Man
# Method in brief: as §1
# [3] = target: GlcNAc(b1-3)[GlcNAc(b1-4)][GlcNAc(b1-6)]GlcNAc
# Method in brief: as §1
# [4] = target: GlcNAc(b1-3)[GlcNAc(b1-6)]Gal(b1-4)GlcNAc
# Method in brief: as §1
# [5] = target: GlcNAc(b1-3)[GlcNAc(b1-6)]GalNAc
# Method in brief: as §1
# [6] = target: GlcNAc(b1-4)Gal(b1-4)GlcNAc
# Method in brief: as §1
# GlcNAc(b1-4)GlcNAc = target: GlcNAc(b1-4)GlcNAc
# Method in brief: as §1
# [7] = target: GlcNAc(b1-4)GlcNAc(b1-4)GlcNAc
# Method in brief: as §1
# [8] = target: GlcNAc(b1-4)GlcNAc(b1-4)GlcNAc(b1-4)GlcNAc(b1-4)GlcNAc
# Method in brief: as §1
# [9] = target: GlcNAc(b1-4)GlcNAc(b1-4)GlcNAc(b1-4)GlcNAc(b1-4)GlcNAc(b1-4)GlcNAc
# Method in brief: as §1
# [10] = target: GlcNAc(b1-4)[GlcNAc(b1-6)]GalNAc
# Method in brief: as §1
# [11] = target: GlcNAc(b1-6)Gal(b1-4)GlcNAc
# Method in brief: as §1
# GlcNAc(b1-6)GalNAc = target: GlcNAc(b1-6)GalNAc
# Method in brief: as §1
# GlcNAc3Prop(b1-4)GlcNAc = target: GlcNAc3Prop(b1-4)GlcNAc
# Method in brief: as §1
# Kdn(a2-3)Gal(b1-3)GlcNAc = target: Kdn(a2-3)Gal(b1-3)GlcNAc
# Method in brief: as §1
# Kdn(a2-3)Gal(b1-4)GlcNAc = target: Kdn(a2-3)Gal(b1-4)GlcNAc
# Method in brief: as §1
# [12] = target: Man(a1-2)Man(a1-2)Man(a1-3)Man
# Method in brief: as §1
# [13] = target: Man(a1-2)Man(a1-2)Man(a1-6)[Man(a1-3)]Man
# Method in brief: as §1
# Man(a1-2)Man(a1-3)Man = target: Man(a1-2)Man(a1-3)Man
# Method in brief: as §1
# [14] = target: Man(a1-2)Man(a1-3)[Man(a1-2)Man(a1-6)]Man
# Method in brief: as §1
# [15] = target: Man(a1-2)Man(a1-3)[Man(a1-2)Man(a1-6)]Man(a1-6)[Man(a1-2)Man(a1-2)Man(a1-3)]Man
# Method in brief: as §1
# [16] = target: Man(a1-2)Man(a1-3)[Man(a1-2)Man(a1-6)]Man(a1-6)[Man(a1-2)Man(a1-2)Man(a1-3)]Man(b1-4)GlcNAc(b1-4)GlcNAc
# Method in brief: as §1
# [17] = target: Man(a1-2)Man(a1-3)[Man(a1-6)]Man(a1-6)[Man(a1-2)Man(a1-3)]Man(b1-4)GlcNAc(b1-4)GlcNAc
# Method in brief: as §1
# [18] = target: Man(a1-2)Man(a1-6)[Man(a1-3)]Man(a1-6)[Man(a1-2)Man(a1-2)Man(a1-3)]Man
# Method in brief: as §1
# [19] = target: Man(a1-2)Man(a1-6)[Man(a1-3)]Man(a1-6)[Man(a1-2)Man(a1-2)Man(a1-3)]Man(b1-4)GlcNAc(b1-4)GlcNAc
# Method in brief: as §1
# Man(a1-3)[Man(a1-6)]Man = target: Man(a1-3)[Man(a1-6)]Man
# Method in brief: as §1
# [20] = target: Man(a1-3)[Man(a1-6)]Man(a1-6)[Man(a1-2)Man(a1-3)]Man(b1-4)GlcNAc(b1-4)GlcNAc
# Method in brief: as §1
# [21] = target: Man(a1-3)[Man(a1-6)]Man(a1-6)[Man(a1-3)]Man
# Method in brief: as §1
# [22] = target: Man(a1-3)[Man(a1-6)]Man(a1-6)[Man(a1-3)]Man(b1-4)GlcNAc(b1-4)GlcNAc
# Method in brief: as §1
# [23] = target: Man(a1-3)[Man(a1-6)]Man(b1-4)GlcNAc(b1-4)GlcNAc
# Method in brief: as §1
# Man(a1-6)Man = target: Man(a1-6)Man
# Method in brief: as §1
# Man(b1-4)GlcNAc = target: Man(b1-4)GlcNAc
# Method in brief: as §1
# Neu5Ac(a2-3)Gal = target: Neu5Ac(a2-3)Gal
# Method in brief: as §1
# [24] = target: Neu5Ac(a2-3)Gal(b1-3)GalNAc
# Method in brief: as §1
# [25] = target: Neu5Ac(a2-3)Gal(b1-3)GalNAc(b1-3)Gal(a1-4)Gal(b1-4)Glc
# Method in brief: as §1
binder,measurement,setting,value
Mannose Binding Protein (Lactobacillus plantarum) (protein) AERSEAALTHVDKDNFLKYFSLNGSATYDAKTGIVTITPNQNNQVGNFSLTSKIDMNKSFTLTGQVNLGSNPNGADGIGFAFHSGNTTDVGNAGGNLGIGGLQDAIGFKLDTWFNSYQAPSSDKNGSEISSTNSNGFGWNGDSANAPYGTFVKTSNQEISTANGSKVQRWWAQDTGESQALSKADIDGNFHDFVVNYDGATRTLTVSYTQASGKVLTWKTTVASSYQAMAMVVSASTGAAKNLQQFKLTSFDFQEAATVNVKYVDTTGHQLAQG,glycan array binding signal (z-score),[1],-0.184
same,glycan array binding signal (z-score),[2],-0.254
same,glycan array binding signal (z-score),GlcNAc(b1-3)GalNAc,0.303
same,glycan array binding signal (z-score),GlcNAc(b1-3)Man,0.01
same,glycan array binding signal (z-score),[3],0.293
same,glycan array binding signal (z-score),[4],-0.769
same,glycan array binding signal (z-score),[5],0.656
same,glycan array binding signal (z-score),[6],0.203
same,glycan array binding signal (z-score),GlcNAc(b1-4)GlcNAc,-0.476
same,glycan array binding signal (z-score),[7],0.583
same,glycan array binding signal (z-score),[8],0.985
same,glycan array binding signal (z-score),[9],0.596
same,glycan array binding signal (z-score),[10],0.543
same,glycan array binding signal (z-score),[11],-0.605
same,glycan array binding signal (z-score),GlcNAc(b1-6)GalNAc,-0.949
same,glycan array binding signal (z-score),GlcNAc3Prop(b1-4)GlcNAc,-0.42
same,glycan array binding signal (z-score),Kdn(a2-3)Gal(b1-3)GlcNAc,1.03
same,glycan array binding signal (z-score),Kdn(a2-3)Gal(b1-4)GlcNAc,-0.143
same,glycan array binding signal (z-score),[12],-0.341
same,glycan array binding signal (z-score),[13],0.115
same,glycan array binding signal (z-score),Man(a1-2)Man(a1-3)Man,3.36
same,glycan array binding signal (z-score),[14],0.712
same,glycan array binding signal (z-score),[15],0.457
same,glycan array binding signal (z-score),[16],-0.014
same,glycan array binding signal (z-score),[17],0.227
same,glycan array binding signal (z-score),[18],-0.529
same,glycan array binding signal (z-score),[19],0.436
same,glycan array binding signal (z-score),Man(a1-3)[Man(a1-6)]Man,0.126
same,glycan array binding signal (z-score),[20],-0.04
same,glycan array binding signal (z-score),[21],1.77
same,glycan array binding signal (z-score),[22],-0.264
same,glycan array binding signal (z-score),[23],-0.294
same,glycan array binding signal (z-score),Man(a1-6)Man,-0.501
same,glycan array binding signal (z-score),Man(b1-4)GlcNAc,0.193
same,glycan array binding signal (z-score),Neu5Ac(a2-3)Gal,-0.349
same,glycan array binding signal (z-score),[24],-0.197
same,glycan array binding signal (z-score),[25],1.01
